Assay results taken from patent US12122821B2, “Regulation of glucose metabolism using anti-CGRP antibodies” (H. LUNDBECK A/S, priority 2013, dated 2024).

How the values were obtained:
HFD rats = experiment: Fasting blood glucose, plasma insulin, C-peptide and HOMA-IR in HFD rats (Example 2); format: in vivo, rat; conditions: vs HFD vehicle
Protocol: After 6 weeks of HFD rats were randomized to treatment groups according to their glucose intolerance (AUC calculation during an oral glucose tolerance test (OGTT)) and their HOMA-IR (insulin resistance index).
Body weight and food consumption were measured 3 times per week until 10 days of treatment. HOMA-IR was measured on day 10 and 15. A 2-step clamp (5 mU/kg/min and then 15 mU/kg/min insulin) was performed on day 15 or 16. Glucose Turnover (GTO) was assessed using ^3H-glucose tracer infusion during the clamp procedure.
Ab14 (10, 30, 100 mg/kg) and the vehicle were weekly administered via i.v. route (via the caudal vein, under isoflurane anaesthesia), in the morning, on day 1 and day 8 of treatment.
Before the start of the treatment (the day of OGTT) and on day 10 of treatment, all rats were fasted from 08:00 am. At 01:30 pm, blood was collected from the from the tip tail (40 μL on EDTA). Blood glucose (using glucometers) and plasma insulin (ELISA method) were measured.
Plasma insulin and C peptide levels were measured just before the infusion starts (˜T-30 min.), at the end of the steady state of step 1 (T2 h) and step 2 (T3.5 h). For that, blood collection was performed from the tip of the tail (˜100 μL, on EDTA).

[1] = test system: Zucker diabetic fatty (ZDF) rat; experiment: Oral glucose tolerance test on day 26 in ZDF rats (Example 3); format: in vivo; conditions: for decrease of insulin secretion (relative to T-60) at T30 / reduction in blood glucose AUC (OGTT): vs vehicle ZDF; for plasma insulin and C-peptide levels 15 and 30 minutes after the glucose load: vs vehicle; for reduction in blood glucose AUC (OGTT): non significant
Protocol: The oral glucose tolerance test (OGTT) was performed as follows. On day 25, rats were fasted at ˜6:00 pm and an oral glucose tolerance test was performed the day after (on day 26). At ˜8:00 am (T-60) a blood collection (110 μL, EDTA) was performed for biochemical parameters measurements. One hour after (˜09:00 am), an oral glucose bolus (1.5 g/kg) was administered (T0). Blood glucose was measured (glucometer or colorimetric method in case of high glycaemia) on T-60, T0, T15, T30, T60, T90, T120, and T180 minutes. Area under the curve (AUC) was calculated based on the blood glucose values measured at T0. Plasma insulin and C-peptide were measured (ELISA method) on T-60, T15 (·40 μL of blood, EDTA), and T30 minutes (·40 μL of blood, EDTA).

[2] = test system: Zucker diabetic fatty (ZDF) rat; experiment: Fasting blood glucose, plasma insulin, C-peptide and HOMA-IR in ZDF rats (Example 3); format: in vivo; conditions: vs vehicle ZDF; for decrease of fasting blood glucose: after 12, 19 or 26 days, n.s; for increase of plasma insulin levels: ns
Protocol: (§1) For the groups treated with AB14, the antibody was administered once weekly via the caudal vein (i.v., 5 mL/kg) on days 1, 8, 15, and 22 at two different doses 20 mg/kg/week (groups 3 and 7) or 60 mg/kg/week (groups 4 and 8). All other groups were treated once weekly with vehicle 1 (i.v., 5 mL/kg). The intravenous treatments were performed in the morning on day 1, 8, 15, and 22 while under isoflurane anaesthesia. The volume of administration was individually adapted according to the most recent body weight.
(§2) All other groups were treated daily with vehicle 2 (p.o., 5 mL/kg) for 28 days. The most recent body weight was used to calculate the average volume of administration in each group.
(§3) A fasting (6 hours on day 0 from 8:00 am to 02:00 pm, and overnight on day 12, 19 and 26 from ˜6:00 pm to ˜8:00 am) was performed before each blood collection. Blood was collected at ˜2:00 pm, from the tip of the tail, on day 0 (before screening, 150 μL, potassium EDTA), and at ˜8:00 am prior to dosing on days 12 (110 μL, potassium EDTA), 19 (150 μL, potassium EDTA) and 26, (110 μL, potassium EDTA).
(§4) Fasting blood glucose (glucometers) was measured on days 0, 12, 19, and 26. Fasting plasma insulin, peptide-C (ELISA method), free fatty acids, triglycerides, total cholesterol (colorimetric method), and HDL-cholesterol (phosphotungstate precipitation, colorimetric method) were measured on day 0, and prior to dosing on days 12, 19, and day 26. Non HDL-cholesterol was calculated as total cholesterol—HDL-cholesterol. Fructosamine was measured on days 0, 19 and 28. HbA1c (DCA 2000) was measured on days 0 and 28.

[3] = test system: Zucker diabetic fatty (ZDF) rat; experiment: Fructosamine and HbA1c in ZDF rats (Example 3); format: in vivo; conditions: vs vehicle ZDF; for decrease of HbA1c: 28 days
Protocol: as §1, §2, §4

[4] = test system: Zucker diabetic fatty (ZDF) rat; experiment: Plasma triglycerides, free fatty acids and cholesterol in ZDF rats (Example 3); format: in vivo; conditions: for decrease of plasma triglycerides levels: ns
Protocol: as §1, §2, §3, §4

[5] = test system: Zucker diabetic fatty (ZDF) rat; experiment: Pancreas insulin and proinsulin content in ZDF rats (Example 3); format: in vivo; conditions: day 28, AB14 60 mg/kg, metformin 200 mg/kg/day, alone or combined, vs vehicle
Protocol: After 2 hours of food restriction (from 8:00 am to 10:00 am) 80 rats from the study were anesthetized on day 28 with isoflurane. Blood was collected (˜3000 μL from abdominal vein, on K2-EDTA) for the determination of AB14 plasma concentrations. Plasma (3 aliquots of ˜200 μL) was kept at −80° C. until testing. The pancreas tissue was then excised. Rats were euthanized by incision of the abdominal vein and aorta.
Each pancreas was divided into 2 parts (longitudinal cut).
Each pancreas sample was homogenized in an acid buffer, and insulin and proinsulin content were measured using ELISA kits in the following groups: […]

[6] = day 10, Ab14 10, 30, 100 mg/kg/week, metformin 200 mg/kg/day
[7] = day 26, AB14 20 mg/kg alone or + metformin
[8] = day 26, AB14 60 mg/kg alone or + metformin
[9] = days 12, 19 and 26, AB14 20 mg/kg

B1: Ab14: humanized anti-CGRP antibody consisting of the light and heavy polypeptide chains of SEQ ID NOs 132 and 134 (protein)
light: QVLTQSPSSLSASVGDRVTINCQASQNVYNNNYLAWYQQKPGKVPKQLIYSTSTLASGVPSRFSGSGSGTDFTLTISSLQPEDVATYYCLGSYDCSRGDCFVFGGGTKVEIKRTVAAPSVFIFPPSDEQLKSGTASVVCLLNNFYPREAKVQWKVDNALQSGNSQESVTEQDSKDSTYSLSSTLTLSKADYEKHKVYACEVTHQGLSSPVTKSFNRGEC
heavy: EVQLVESGGGLVQPGGSLRLSCAVSGIGLSSYYMQWVRQAPGKGLEWVGVIGSDGKTYYATWAKGRFTISRDNSKTTVYLQMNSLRAEDTAVYFCTRGDIWGQGTLVTVSSASTKGPSVFPLAPSSKSTSGGTAALGCLVKDYFPEPVTVSWNSGALTSGVHTFPAVLQSSGLYSLSSVVTVPSSSLGTQTYICNVNHKPSNTKVDARV[here human IgG1 Fc with changes without letters]
For B1, the “decrease of HOMA-IR” value (HFD rats; [6]) was “no effect”, the “decrease of fasting plasma insulin” value (HFD rats; [6]) was “no effect” and the fasting blood glucose (HFD rats; [6]) was “no effect”. The “decrease of HOMA-IR” value (HFD rats; day 15, Ab14 10 mg/kg) was 33%, the “decrease of plasma C-peptide level” value (HFD rats; day 15, Ab14 10 mg/kg) was 30% and the “decrease of fasting plasma insulin” value (HFD rats; day 15, Ab14 10 mg/kg, ns) was 26%. The “decrease of HOMA-IR” value (HFD rats; day 15, Ab14 30 mg/kg) was 17%, the “decrease of plasma C-peptide level” value (HFD rats; day 15, Ab14 30 mg/kg) was 23% and the “decrease of fasting plasma insulin” value (HFD rats; day 15, Ab14 30 mg/kg, ns) was 16%. For the same molecule, the “decrease of HOMA-IR” value (HFD rats; day 15, Ab14 100 mg/kg) was 38%, the “decrease of plasma C-peptide level” value (HFD rats; day 15, Ab14 100 mg/kg) was 29% and the fasting blood glucose (HFD rats; day 15, Ab14 100 mg/kg) was “significant decreasing effect”. The “decrease of fasting plasma insulin” value (HFD rats; day 15, Ab14 100 mg/kg, ns) was 18%, the “decrease of insulin secretion (relative to T-60) at T30” value ([1]; OGTT day 26, AB14 20 mg/kg alone or + metformin) was “no effect” and the “decrease of insulin secretion (relative to T-60) at T30” value ([1]; OGTT day 26, AB14 60 mg/kg alone or + metformin, trend) was 19%. For the same molecule, the “plasma insulin and C-peptide levels 15 and 30 minutes after the glucose load” value [1, 7] was “similar”, the “reduction in blood glucose AUC (OGTT)” value [1, 7] was 7% and the “plasma insulin and C-peptide levels 15 and 30 minutes after the glucose load” value [1, 8] was “similar”. The “reduction in blood glucose AUC (OGTT)” value [1, 8] was 11%, the “decrease of fasting blood glucose” value ([2]; AB14 20 mg/kg/week) was “about 15%” and the “decrease of fasting blood glucose” value ([2]; AB14 60 mg/kg/week) was “about 15%”. For the same molecule, the “increase of plasma C-peptide levels” value ([2]; day 12, AB14 60 mg/kg alone or + metformin 200 mg/kg/day) was 10%, the “increase of plasma insulin levels” value ([2]; day 12, AB14 60 mg/kg) was 74% and the “increase of plasma insulin levels” value ([2]; day 19, AB14 60 mg/kg) was 21%. For the same molecule, the “increase of plasma insulin levels” value ([2]; day 26, AB14 60 mg/kg) was 19%, the HOMA-IR [2, 9] was “did not change” and the “plasma C-peptide levels” value [2, 9] was “did not change”. For the same molecule, the plasma insulin levels [2, 9] was “did not change”, the “plasma C-peptide levels” value ([2]; days 19 and 26, AB14 60 mg/kg) was “no effect” and the “decrease of HbA1c” value ([3]; AB14 20 mg/kg alone or + metformin 200 mg/kg/day) was “no effect”. The “decrease of HbA1c” value ([3]; AB14 60 mg/kg alone or + metformin 200 mg/kg/day) was “no effect”, the fructosamine levels ([3]; AB14 20 mg/kg) was “no effect” and the fructosamine levels ([3]; AB14 60 mg/kg) was “no effect”. For the same molecule, the “plasma free fatty acids levels” value ([4]; AB14 20 mg/kg alone (vs vehicle ZDF) or with metformin (vs metformin alone)) was “no effect”, the “non HDL-cholesterol levels” value ([4]; AB14 20 mg/kg, vs vehicle) was “no effect” and the “plasma total cholesterol levels relative to day 0” value ([4]; AB14 20 mg/kg, vs vehicle ZDF) was “no effect”. For the same molecule, the “non HDL-cholesterol levels” value ([4]; AB14 60 mg/kg, vs vehicle) was “no effect”, the “plasma free fatty acids levels” value ([4]; AB14 60 mg/kg, vs vehicle ZDF) was “no effect” and the “decrease of plasma triglycerides levels” value ([4]; day 12, AB14 20 mg/kg, vs vehicle) was 15%. For the same molecule, the “increase of total cholesterol (relative to day 0)” value (shortened to “increase … (relative to day 0)”) ([4]; day 12, AB14 60 mg/kg alone or + metformin, vs vehicle ZDF) was 8%, the “decrease of plasma triglycerides levels” value ([4]; day 12, AB14 60 mg/kg, vs vehicle) was 14% and the “decrease of plasma triglycerides levels” value ([4]; day 19, AB14 20 mg/kg, vs vehicle) was 7%. The “increase … (relative to day 0)” value ([4]; day 19, AB14 60 mg/kg alone or + metformin, vs vehicle ZDF) was 14%, the “decrease of plasma triglycerides levels” value ([4]; day 19, AB14 60 mg/kg, vs vehicle) was 9% and the plasma triglycerides levels ([4]; day 26, AB14 20 mg/kg, vs vehicle) was “no effect”. For the same molecule, the “increase … (relative to day 0)” value ([4]; day 26, AB14 60 mg/kg alone or + metformin, vs vehicle ZDF) was 15%, the “decrease of plasma triglycerides levels” value ([4]; day 26, AB14 60 mg/kg, vs vehicle) was 12% and the pancreas proinsulin levels [5] was “completely prevented reductions”. For the same molecule, the pancreatic insulin levels [5] was “slightly increased”.
